Data reported in PubChem BioAssay (Tox21).
Values joined by “and” are separate entries in the source; they are usually repeats but may differ in a detail not shown here. Identical values can stand only once. Inconclusive results, whose numbers are uncertain, are shown with a selection of clear calls. A potency beside an inconclusive call is a rough fit, not a confirmed value. Active and inactive are the calls of the source. Calls follow the shape of the dose curve; as a rule, active = well fitted cell-killing curve with a large enough effect in the repeat runs; inconclusive = weak or mixed curves, or effect the other way; inactive = no such curve, though single readings can be large or run the other way.

assay: qHTS assay for identifying genotoxic compounds that show differential cytotoxicity against isogenic chicken DT40 cell lines with known DNA damage response pathways - wild type cell line (AID 743012); conditions: DT40 wild type chicken cells viability, CellTiter-Glo, 40 h; activity change, negative = cytotoxicity: at 68.4 µM (top of the series) unless noted; also: nearly all actives have a fitted effect of over 60% in size
Outline: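 Wild-type DT40 cells (300/well) exposed to compounds for 40 hours at 37 C/5% CO2. Viability read by CellTiter-Glo luminescence after 30 min at room temperature.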
% is scaled to controls: 0 for no effect and ±100 for the full control effect; potency is read from the fitted curve at half-maximal effect; tags tell the direction and shape of the fitted curve.

For `CCCCCCC(C)(C)S`, which Potency is on record?
Its Potency is “inactive”.

For `O=C(O)c1ccccc1C(=O)O`, which activity change, negative = cytotoxicity is on record?
Its activity change, negative = cytotoxicity is inconclusive: -17.3% [at 95 µM].

Which Potency does the source give for `Nc1cc(Cl)c(N)c(Cl)c1` here?
Its Potency is inconclusive: 68 µM [cytotoxic, single point].

And the activity change, negative = cytotoxicity?
The activity change, negative = cytotoxicity was inconclusive: -89.6%.

Which “activity change, negative = cytotoxicity” value does the source give for `CC(=O)/C=C/c1ccco1` here?
Its value is inactive: 5.63% [at 95 µM].

Which Potency does the source give for `O=c1[nH]cnc2c1ncn2[C@H]1CC[C@@H](CO)O1` here?
Its Potency is inconclusive: 13.1 µM [rising, full curve].

Which Potency does the source give for `CCCCCCCCCCCCCBr` here?
The Potency was inconclusive: 27.2 µM [rising, single point].

For `CC(C)[N+](C)(CCOC(=O)C1c2ccccc2Oc2ccccc21)C(C)C`, which Potency is on record?
Its Potency is inconclusive: 68.6 µM [cytotoxic, single point].

With `CC/C=C\CCO` as the molecule, how does the activity change, negative = cytotoxicity read?
Its activity change, negative = cytotoxicity is inconclusive: 33.5%.

With `NCCNCCNCCNCCN` as the molecule, how does the Potency read?
Its Potency is inconclusive: 33.5 µM [cytotoxic, single point] and inactive.

Which Potency does the source give for `O=C(O)c1cc(Br)c(O)c(Br)c1` here?
The Potency was inconclusive: 68.6 µM [cytotoxic, single point].

For `O=C(O)c1cccc(C(F)(F)F)c1`, which “activity change, negative = cytotoxicity” value is on record?
The value was inactive: 2.92%.

For `CC1=Nc2ccc3ccccc3c2C1(C)C`, which Potency is on record?
The Potency was inconclusive: 24.3 µM [cytotoxic, single point].

With `N=C(N)N` as the molecule, how does the “activity change, negative = cytotoxicity” value read?
The value was inactive: -3.2%.

With `C=CCOC(=O)c1ccccc1C(=O)OCC=C` as the molecule, how does the Potency read?
Its Potency is inconclusive: 77 µM [cytotoxic, single point].

With `CCC(C)(CCC(C)C)C(=O)[O-].CCC(C)(CCC(C)C)C(=O)[O-].[Zn+2]` (stereo not given) as the molecule, how does the Potency read?
The Potency was inconclusive: 6.11 µM [rising, full curve, poor fit].

Which “activity change, negative = cytotoxicity” value does the source give for `CC1(C)S[C@@H]2[C@H](N=CN3CCCCCC3)C(=O)N2[C@H]1C(=O)O` here?
The value was inactive: 10.3%.

Which “activity change, negative = cytotoxicity” value does the source give for `O=C(O)c1cc(=O)c2ccccc2o1` here?
The value was inactive: 11.9%.

For `CC(C)(O)CCc1ccccc1`, which “activity change, negative = cytotoxicity” value is on record?
Its value is inactive: 2.2%.

For `COc1cc(C(=O)N2CCCCCCC2)cc(OC)c1OC`, which Potency is on record?
Its Potency is active: 21.1 µM.

With `CCCCCCCCN1CCCC1=O` as the molecule, how does the Potency read?
Its Potency is inconclusive: 61.1 µM [cytotoxic, single point].

Which Potency does the source give for `COC(=O)c1ccccc1OC` here?
Its Potency is inconclusive: 30.6 µM [rising, full curve].

For `Cn1c(N)c(N=O)c(=O)n(C)c1=O`, which “activity change, negative = cytotoxicity” value is on record?
The value was inactive: 19.7% [at 95 µM].

For `Oc1ccc2c(c1)-c1ccccc1C2`, which Potency is on record?
The Potency was inconclusive: 68.6 µM [cytotoxic].

For `Nc1nc(-c2ccc([N+](=O)[O-])cc2)cs1`, which “activity change, negative = cytotoxicity” value is on record?
Its value is inactive: 4.47% [at 95 µM].

For `Sc1nc(S)nc(S)n1`, which Potency is on record?
The Potency was inconclusive: 4.19 µM [rising, partial curve, poor fit].

With `CCCCC(CC)COC(=O)c1ccccc1O` (stereo not given) as the molecule, how does the “activity change, negative = cytotoxicity” value read?
Its value is inactive: 12.7%.

Which Potency does the source give for `C=C(C)C(=O)OCCOCCOCCOCCOC(=O)C(=C)C` here?
Its Potency is inconclusive: 61.1 µM [cytotoxic, single point].

Which Potency does the source give for `O=C(O)CCC(=O)OC[C@@H](NC(=O)C(Cl)Cl)[C@H](O)c1ccc([N+](=O)[O-])cc1` here?
The Potency was inconclusive: 33.5 µM [cytotoxic, single point].

Which “activity change, negative = cytotoxicity” value does the source give for `CCCCCCCC(=O)OCCCCCC` here?
The value was inactive: 9.59%.

With `CCCCCC=CCC=CCCCCCCCC(=O)OCC` as the molecule, how does the “activity change, negative = cytotoxicity” value read?
Its value is inactive: 5.02%.

Which “activity change, negative = cytotoxicity” value does the source give for `CC1(C)[C@@H]2CC[C@@]1(C)[C@H](O)C2` here?
Its value is inactive: 7.48%.

With `O=C1NC(=O)[C@@]2(CCOc3ccc(F)cc32)N1` as the molecule, how does the “activity change, negative = cytotoxicity” value read?
The value was inactive: 4.04%.

With `NCCCCCCN` as the molecule, how does the Potency read?
The Potency was inconclusive: 12.3 µM [rising, partial curve].

With `CC(=O)N[C@@H](Cc1ccc(O)cc1)C(=O)O` as the molecule, how does the “activity change, negative = cytotoxicity” value read?
The value was inactive: 0.27%.

Which activity change, negative = cytotoxicity does the source give for `c1ccc(CCc2ccccc2)cc1` here?
Its activity change, negative = cytotoxicity is inconclusive: 13.9%.

For `CCCC(=O)OC`, which Potency is on record?
The Potency was inconclusive: 27.3 µM [rising, single point].

Which Potency does the source give for `CC(=O)OC(C)C[N+](C)(C)C` (stereo not given) here?
The Potency was inconclusive: 14.3 µM [rising, partial curve, poor fit].

Which Potency does the source give for `CCCCCC1Nc2cc(C(F)(F)F)c(S(N)(=O)=O)cc2S(=O)(=O)N1` (stereo not given) here?
Its Potency is inconclusive: 29.8 µM [cytotoxic, partial curve, poor fit].

With `Sc1nc2ccccc2s1` as the molecule, how does the activity change, negative = cytotoxicity read?
Its activity change, negative = cytotoxicity is inconclusive: -93.1%.

assay: qHTS assay for identifying genotoxic compounds that show differential cytotoxicity against isogenic chicken DT40 cell lines with known DNA damage response pathways - Rev3 mutant cell line (AID 743014); conditions: chicken DT40 Rev3-/- viability, CellTiter-Glo, 40 h; activity, negative = cytotoxicity: at 68.4 µM (top of the series) unless noted; also: nearly all actives have a fitted effect of over 55% in size

Which Potency does the source give for `Nc1cc(Cl)c(N)c(Cl)c1` here?
Its Potency is inconclusive: 68 µM [cytotoxic, single point].

What about the activity, negative = cytotoxicity of the same molecule?
Its activity, negative = cytotoxicity is inconclusive: -106%.

For `CC(=O)/C=C/c1ccco1`, which “activity, negative = cytotoxicity” value is on record?
Its value is inactive: 1.96% [at 95 µM].

Which Potency does the source give for `O=c1[nH]cnc2c1ncn2[C@H]1CC[C@@H](CO)O1` here?
Its Potency is inconclusive: 23.7 µM and inconclusive: 65.7 µM [cytotoxic, partial curve, poor fit].

What about the activity, negative = cytotoxicity of the same molecule?
Its activity, negative = cytotoxicity is inconclusive: -45.9% [cytotoxic].

For `CC(C)[N+](C)(CCOC(=O)C1c2ccccc2Oc2ccccc21)C(C)C`, which Potency is on record?
Its Potency is inconclusive: 17.2 µM [cytotoxic, partial curve, poor fit].

Which Potency does the source give for `NCCNCCNCCNCCN` here?
Its Potency is inconclusive: 33.5 µM [cytotoxic, single point] and inconclusive: 68.2 µM [cytotoxic, partial curve, poor fit].

With `O=C(O)c1cc(Br)c(O)c(Br)c1` as the molecule, how does the Potency read?
The Potency was inconclusive: 68.6 µM [cytotoxic, single point].

Which Potency does the source give for `CC1=Nc2ccc3ccccc3c2C1(C)C` here?
Its Potency is inconclusive: 27.3 µM [cytotoxic, partial curve, poor fit].

Which results are given for `C=CCOC(=O)c1ccccc1C(=O)OCC=C`?
Potency: inconclusive: 67.5 µM [cytotoxic]; activity, negative = cytotoxicity: inconclusive: -44.5% [cytotoxic]

Which Potency does the source give for `COc1cc(C(=O)N2CCCCCCC2)cc(OC)c1OC` here?
Its Potency is inconclusive: 26.6 µM [cytotoxic].

Which “activity, negative = cytotoxicity” value does the source give for `CCCCCCCCN1CCCC1=O` here?
The value was inactive: -26.2%.

Which Potency does the source give for `Oc1ccc2c(c1)-c1ccccc1C2` here?
Its Potency is active: 54.5 µM.

With `C=C(C)C(=O)OCCOCCOCCOCCOC(=O)C(=C)C` as the molecule, how does the “activity, negative = cytotoxicity” value read?
Its value is inactive: -14.1%.

Which Potency does the source give for `O=C1NC(=O)[C@@]2(CCOc3ccc(F)cc32)N1` here?
Its Potency is inconclusive: 18.8 µM [rising, partial curve, poor fit].

Which Potency does the source give for `NCCCCCCN` here?
The Potency was inconclusive: 61.1 µM [cytotoxic, partial curve, poor fit].

Which “activity, negative = cytotoxicity” value does the source give for `c1ccc(CCc2ccccc2)cc1` here?
The value was inactive: 0.121%.

Which “activity, negative = cytotoxicity” value does the source give for `CCCCCC1Nc2cc(C(F)(F)F)c(S(N)(=O)=O)cc2S(=O)(=O)N1` (stereo not given) here?
The value was inactive: 0.406%.

For `Sc1nc2ccccc2s1`, which activity, negative = cytotoxicity is on record?
The activity, negative = cytotoxicity was inconclusive: -93.6%.
